Results taken from paper PMC6304311 (Influenza and Other Respiratory Viruses, 2018).

Test system: influenza virus isolates from SARI patients [A(H1N1)pdm09, influenza B, A(H3N2)]
Assay type: biochemical

## CC(=O)N[C@H]1[C@H]([C@H](O)[C@H](O)CO)OC(C(=O)O)=C[C@@H]1N=C(N)N [zanamivir]
  susceptibility of isolates from SARI cases: susceptible
